Screen size: about 310,000 compounds; about 18,000 (5.8%) were called active. Inconclusive results, whose numbers are uncertain, are shown with a selection of clear calls. Calls come from the whole dose curve; as a rule, active = well fitted inhibition curve with a large enough effect; inconclusive = small, poorly fitted or top-dose-only effect, or another doubt; inactive = no such curve, though single readings can be large or run the other way. Potencies of inconclusive entries are left out as doubtful fits.
Experiment: Primary qHTS for delayed death inhibitors of the malarial parasite plastid, 48 hour incubation
Settings: P. falciparum luciferase growth in erythrocytes; series mostly up to 28.7 µM; activity change, negative = inhibition: at the top concentration
Summary of the method: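 Erythrocytes infected with P. falciparum carrying an integrated firefly luciferase reporter (2% hematocrit, 0.1% parasitemia final) were exposed to compounds in RPMI 1640 with 0.5% Albumax at 37 C, 5% CO2. Growth inhibition was scored as reduced luminescence.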
% is set by controls: 0 for no effect and ±100 for the full control effect; potency is the fitted concentration of half-maximal effect; tags give direction and shape of the fitted curve.

Row | Compound | Potency | activity change, negative = inhibition
1 | O=C(Nc1ccccc1F)C1(c2ccccc2)CC1(Cl)Cl (stereo unspecified) | inconclusive [inhibitor, single point] | –
2 | COc1ccc2c(C)cc3nncn3c2c1 | – | inactive: 14%
3 | Cc1ccc(C)c(N(CC(=O)NC2CCCCC2)C(=O)CCC(=O)Nc2ccccn2)c1 | inconclusive [inhibitor, partial curve, poor fit] | –
4 | COC(=O)CCCC1=CC2=C(c3ccccc3)C(=O)C(C)(OC(=O)C3CCCC3)C(=O)C2=CN1CCc1ccccn1 (stereo unspecified) | inconclusive [inhibitor, partial curve] | –
5 | N#CC(C#N)=C1C(=O)N(CCN2CCOCC2)c2ccccc21 | – | inactive: -4.46%
6 | COc1ccc(N2CC(C)Cn3c2nc2c3c(=O)n(Cc3ccccc3F)c(=O)n2C)c(OC)c1 (stereo unspecified) | inconclusive [inhibitor, partial curve, poor fit] | –
7 | CCOc1ccccc1NC(=O)c1cc(-c2ccccn2)nc2ccccc12 | active: 14.7 µM | –
8 | CCn1c2ccccc2c2cc(NC(=O)c3cccc([N+](=O)[O-])c3C)ccc21 | – | inactive: -6.19%
9 | CC(=O)Nc1ccc(Oc2ccccc2)cc1 | inconclusive [inhibitor, single point] | –
10 | Cc1cccc(C(=O)NCC(=O)OCC(=O)N(C)CC(=O)Nc2ccccc2Cl)c1 | – | inactive: -14.3%
11 | CC1=CC(C)C2(COC(=O)Nc3ccccc3)COC(C)C1C2C (stereo unspecified) | inconclusive [inhibitor, partial curve, poor fit] | –
12 | O=C(OCC(=O)N1CCN(C(=O)c2ccco2)CC1)c1cncc(Br)c1 | – | inactive: 12.2%
13 | Cc1ccc(C)c(S(=O)(=O)N2CCN(c3nc(CN4CCOCC4)nc4sc(C)c(C)c34)CC2)c1 | active: 11.7 µM | –
14 | O=C(CCN1CCOCC1)Nc1c(-c2ccccc2)c2cc(Br)ccc2[nH]c1=O | inconclusive [inhibitor, single point] | –
15 | Cc1ccccc1S(=O)(=O)c1c(C)cc(C)n(C)c1=O | inconclusive [inhibitor, single point] | –
16 | CC1(C)CC2CC(C)(CN2S(=O)(=O)c2cccc(N)c2)C1 (stereo unspecified) | inconclusive [inhibitor, partial curve, poor fit] | –
17 | CCOc1ccccc1NC(=O)C1=C(C)NC(=O)NC1c1cccs1 (stereo unspecified) | inconclusive [inhibitor, full curve, poor fit] | –
18 | CC(=O)Nc1cccc(O)c1 | inactive | –
19 | O=C(NC1CCCC1)C(c1ccncc1)N(C(=O)Cc1cccs1)c1ccccc1 (stereo unspecified) | – | inactive: -21.5%
20 | CC(C)Oc1cccc(C(=O)N2CCCC2)c1 | – | inactive: -3.23%
21 | C/C(Cn1cnc([N+](=O)[O-])n1)=N\NC(=O)c1ccc(F)cc1 | – | inactive: -24.2%
22 | O=C(c1ccc2c(c1)OCO2)C1CCCN(Cc2cc(F)ccc2-n2cccn2)C1 (stereo unspecified) | inconclusive [inhibitor, single point] | –
23 | CC(C)c1ccc(C(C)NCCS(=O)(=O)c2ccc(Br)cc2)cc1 (stereo unspecified) | inconclusive [inhibitor, partial curve, poor fit] | –
24 | CCN1C(=O)[C@H]2[C@@H](c3ccc(-c4ccc(Cl)c(Cl)c4)cc3)N[C@@](C)(C(=O)OC)[C@H]2C1=O | inconclusive [inhibitor, single point] | –

Row | Compound | Potency | activity change, negative = inhibition
25 | CC(=O)/C(=N/Nc1cccc(C)c1)N1CCOCC1 | – | inactive: 12%
26 | Brc1cc2c(cc1/C=N/Nc1nc(N3CCCCC3)nc(N3CCCCC3)n1)OCO2 | inconclusive [inhibitor, partial curve] | –
27 | COc1ccc(CCNC(=O)CSC2=NS(=O)(=O)c3ccccc3N2)cc1OC | – | inactive: 19.7%
28 | Cc1ccc(C(=O)NCC(=O)N2CCCN(S(=O)(=O)c3ccc(C)cc3)CC2)cc1 | inconclusive [inhibitor, single point] | –
29 | O=Nc1c(O)n(Cc2c(Cl)cccc2Cl)c2ccccc12 | inconclusive [inhibitor, partial curve, poor fit] | –
30 | CC(=O)Nc1ccc(C(=O)NCCc2ccccc2)cc1 | – | inactive: 77.3%
31 | COc1cc(Cl)ccc1OCc1cc(C(=O)NCc2cc(C(C)C)no2)no1 | – | inactive: 7.46%
32 | O=C(O)/C=C/C(=O)Nc1ccc(-c2ccccc2)cc1 | inactive | –
33 | Cc1ccc(COC(=O)c2cc(S(=O)(=O)N3CCOCC3)ccc2C)cc1 | active: 9.28 µM | –
34 | CCOc1ccc(NC(=O)CN(C)C(=O)c2cc3c(s2)CCCCC3)cc1OCC | – | inactive: 8.61%
35 | Cc1ccc(C(=O)OCc2cc3ccccc3[nH]c2=O)cc1 | inconclusive [inhibitor, single point] | –
36 | Cc1ccc(C(=O)OCC(=O)N(CC(C)C)c2c(N)n(Cc3ccccc3)c(=O)[nH]c2=O)s1 | inconclusive [inhibitor, partial curve, poor fit] | –
37 | COc1ccc(C(NC(C)=O)c2ccc3cccnc3c2O)c(OC)c1 (stereo unspecified) | active: 1.65 µM | –
38 | O=C(N/N=C/c1c(O)n(-c2ccccc2)c(=O)[nH]c1=O)c1ccncc1 | – | inactive: 33.8%
39 | Cc1cccc(NCc2ccccc2OCc2ccccc2F)c1 | – | inactive: -21%
40 | CN1CCN(c2nc3c(c(=O)[nH]c(=O)n3C)n2CCCSc2nnnn2-c2ccccc2)CC1 | inconclusive [inhibitor, full curve, poor fit] | –
41 | CCN(CC(=O)Nc1c(F)cccc1F)C(=O)c1cc([N+](=O)[O-])ccc1N1CCOCC1 | – | inactive: 15.1%
42 | Oc1ccccc1-c1nc(NCc2ccccc2)c2ccccc2n1 | inconclusive [inhibitor, partial curve, poor fit] | –
43 | O=C1NC(c2cccc(Cl)c2)Nc2ccccc21 (stereo unspecified) | – | inactive: 34.8%
44 | CCCCOc1ccc(C(=O)NCC(=O)N(C)Cc2nc3ccccc3c(=O)[nH]2)cc1 | inconclusive [inhibitor, single point] | –
45 | CCOc1ccc(C2C(C#N)=C(N)SC(N)=C2C#N)cc1OC | inconclusive [inhibitor, full curve, poor fit] | –
46 | O=C(Nc1nccs1)c1ccc(Cl)c(S(=O)(=O)N2CCOCC2)c1 | – | inactive: -8.21%
47 | CN(C)N1C(N)=C(C#N)C(c2ccc3c(c2)OCO3)C2=C1CCCC2=O (stereo unspecified) | inconclusive [inhibitor, full curve, poor fit] | –
48 | Cc1nc(C)c(/C(O)=C/c2nc3ccc([N+](=O)[O-])cc3oc2=O)o1 | – | inactive: 73.8%

Row | Compound | Potency | activity change, negative = inhibition
49 | Cc1ccc2nc(SCC(=O)Nc3cc(C)on3)nc(=O)n2c1 | inconclusive [inhibitor, single point] | –
50 | CCc1c(C)nc2ncnn2c1N1CCC(C(=O)NCc2cccc(OC)c2)CC1 | inconclusive [inhibitor, partial curve] | –
51 | COc1ccc(N(CC(=O)NCc2ccccc2Cl)S(=O)(=O)c2c(C)n[nH]c2C)cc1 | inconclusive [inhibitor, partial curve, poor fit] | –
52 | O=C(Cn1nnc(-c2ccccc2NC(=O)c2cccs2)n1)Nc1ccccc1 | inconclusive [inhibitor, single point] | –
53 | O=C1CCCC2=C1Sc1ccc(Cl)cc1N2 | – | inactive: 0%
54 | CCN1CCN(c2nc3sc4c(c3c(=O)n2-c2ccc(OC)cc2)CCCCC4)CC1 | inconclusive [inhibitor, single point] | –
55 | O=C(NCc1ccc(C(F)(F)F)cc1)C12CN(Cc3ccccc3)CC1C(c1cccc([N+](=O)[O-])c1)=NO2 (stereo unspecified) | active: 9.28 µM | –
56 | O=c1c(O)c(-c2ccc(O)c(O)c2)oc2cc(O)cc(O)c12 | inconclusive [inhibitor, full curve, poor fit] | –
57 | Cc1cc(-c2ccc(S(=O)(=O)N3CCN(c4ccc(F)cc4)CC3)s2)on1 | inconclusive [inhibitor, partial curve, poor fit] | –
58 | Cc1cnc(=O)[nH]c1SCC(=O)Nc1nccs1 | – | inactive: -16.7%
59 | COc1ccc(N=C2S/C(=C\c3cc(C)n(C)c3C)C(=O)N2CC(C)C)cc1 | inconclusive [inhibitor, partial curve, poor fit] | –
60 | Cc1cc(=O)n2nc(N3CCCC(C(=O)N4CCN(c5ccccc5)CC4)C3)sc2n1 (stereo unspecified) | inconclusive [inhibitor, single point] | –
61 | CCc1cccc(C)c1NC(=O)CN(C)Cc1cccc(F)c1 | inconclusive [inhibitor, single point] | –
62 | COc1ccc(-c2cn(Cc3ccc(C(N)=O)cc3)c(-c3ccncc3)n2)cc1 | – | inactive: 33.3%
63 | Cc1c(C(=O)O)cc(C(C)(C)C)n1CCSCCO | – | inactive: 54.4%
64 | O=C(N[C@@H](Cc1ccccc1)C(=O)OCC(=O)N1CCOCC1)c1cccs1 | – | inactive: 41.5%
65 | CCN(CC)CCN(Cc1cc2cc3c(cc2[nH]c1=O)OCO3)C(=S)NCCCN(C)C | inconclusive [inhibitor, single point] | –
66 | Cc1cccc2cc(CN(Cc3ccco3)C(c3nnnn3CCc3ccccc3)C(C)C)c(=O)[nH]c12 (stereo unspecified) | active: 1.85 µM | –
67 | CN(C)S(=O)(=O)c1ccc(NC(=O)CN2C(=O)NC(Cc3ccccc3)C2=O)cc1 (stereo unspecified) | inconclusive [inhibitor, single point] | –
68 | CC(C)CNC(=S)NNC(=O)c1ccco1 | – | inactive: 5.39%
69 | CCCOc1ccc(/C(CC)=N/NC(=O)C2(C)CC2(Br)Br)cc1 (stereo unspecified) | inconclusive [inhibitor, partial curve] | –
70 | CN=C(Nc1ccc(Br)cc1)SC1CC(=O)N(c2ccc(OC)cc2)C1=O (stereo unspecified) | inconclusive [inhibitor, single point] | –
71 | O=P(O)(C(O)c1ccccc1)C(O)c1ccccc1 (stereo unspecified) | inconclusive [inhibitor, single point] | –

Reference: PubChem BioAssay AID504832 (National Center for Advancing Translational Sciences (NCATS), 2011)
